According to the supplement of paper PMC11417369:
± gives the standard deviation of the averaged measurements. The list shows a part of the results.

The sequences below were run on PfAP2-LT AP2 domain (GST-tagged) (assay: gcPBM binding intensity (ln(normalized median fluorescence intensity)); higher = stronger DNA binding).
In short: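 Alexa488 anti-GST antibody, scanned at 488 nm, detected GST-tagged P. falciparum DNA-binding domains that had been expressed in E. coli and incubated for 1 h on an Agilent 4 × 180k array. The array carried primer-extended double-stranded 36-bp intergenic genomic probes and negative controls. Binding intensity is the highest Masliner-normalised natural-log median intensity across replicate spots of either orientation of each probe.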
In the case of “AATATAACTTAGAATTGTACATAAAAAAAAATATAT [XGTACX_site3313]”, the “gcPBM binding intensity (ln)” value is reported as 8.77 ± 0.48.
With “TACCTAATATGTTATACACACATTATAAGTACATAT [CACACA_site7206]” the “gcPBM binding intensity (ln)” value was 9.12 ± 0.28.
For “TATAAAATACATTTATAATATATATATATATTTTTT [TGCATGCA_negctrl_site435]”, the “gcPBM binding intensity (ln)” value was 8.45 ± 0.35.
“ATATGAAATATATAAATATGTTTATATATATATATA [GTGCAC_negctrl_site94]” was tested, and the “gcPBM binding intensity (ln)” value was 8.96 ± 0.38.
In the case of “AAACAAAATATGGTTCATGAGCAAAAGTTTATTTTG [XGTACX_negctrl_site531]”, the “gcPBM binding intensity (ln)” value is reported as 8.73 ± 0.48.
“ATTTATTTATACAAAGTGCAATATTTTGTTAAAGTC [GTGCAC_site9618]” was tested, and the “gcPBM binding intensity (ln)” value was 8.55 ± 0.38.
With “AATGTAAAATATAAATGTACATATATATATATATAT [XGTACX_site5071]” the “gcPBM binding intensity (ln)” value was 9.61 ± 0.057.
With “CTCTTTTCTTATAATACACACAGTAATATATATATA [CACACA_site1520]” the “gcPBM binding intensity (ln)” value was 8.88 ± 0.38.
For “ATACATATATATATATGTACACATAAACATGAGTGA [XGTACX_site3200]”, the “gcPBM binding intensity (ln)” value was 9.1 ± 0.49.
“TAATGGAAACCATTTATTTTCTGCAATATATTTTTT [CACACA_negctrl_site1653]” was tested, and the “gcPBM binding intensity (ln)” value was 8.34 ± 0.46.
For “TTTACATCAACCTTTTCACACATTCATATACAGATA [CACACA_site6152]”, the “gcPBM binding intensity (ln)” value was 8.78 ± 0.42.
In the case of “TGTGTTTATACGTTTTGTACATATTTTTATTTTGTA [XGTACX_site6425]”, the “gcPBM binding intensity (ln)” value is reported as 8.97 ± 0.4.
“TCATTAAAGGAAAAATGTACGTATAAATAAATATAT [XGTACX_site2587]” was tested, and the “gcPBM binding intensity (ln)” value was 8.72 ± 0.4.
In the case of “TTCAAAAAATAAAATAATAATATATATATAAATATA [XGTACX_negctrl_site84]”, the “gcPBM binding intensity (ln)” value is reported as 8.32 ± 0.55.
In the case of “TTTTTTATATTTAAACTTCACATGGTTTTCATTTAT [XGTACX_negctrl_site291]”, the “gcPBM binding intensity (ln)” value is reported as 8.8 ± 0.5.
In the case of “TTTTTTTTACATTCTGCACACAATTTATTTTTTTTT [CACACA_site36]”, the “gcPBM binding intensity (ln)” value is reported as 9.16 ± 0.6.
With “AAATCAAACTTTGGTGTGCACAAATATATACATATA [GTGCAC_site9986]” the “gcPBM binding intensity (ln)” value was 9.29 ± 0.47.
With “AAAAATGAGTGACACACACACATATAAATATAAATA [CACACA_site7115]” the “gcPBM binding intensity (ln)” value was 9.44 ± 0.43.
“TATAAAAAAAAAAAAAGTACTAACTTAAAACAATTT [XGTACX_site7969]” was tested, and the “gcPBM binding intensity (ln)” value was 8.46 ± 0.42.
For “TTGATAATTATATAATGTACTCATTATAATATGATG [XGTACX_site7813]”, the “gcPBM binding intensity (ln)” value was 8.55 ± 0.43.
For “TGATAAAGTAAATATACATGCGATTAGTTATATATA [TGCATGCA_site720]”, the “gcPBM binding intensity (ln)” value was 8.73 ± 0.37.
In the case of “TTTATTCTCAAACACACACACATATATATATATATA [CACACA_site2895]”, the “gcPBM binding intensity (ln)” value is reported as 9.88 ± 0.19.
In the case of “TTTTATATATATATCACACACACACCCATGTTTTAA [CACACA_site79]”, the “gcPBM binding intensity (ln)” value is reported as 9.67 ± 0.38.
In the case of “TAATTAATAATAATATGTACATATTAATATATTATT [XGTACX_site6900]”, the “gcPBM binding intensity (ln)” value is reported as 8.57 ± 0.38.
In the case of “TATTTATTCTCCAACACACACACATATATTTATATA [CACACA_site7376]”, the “gcPBM binding intensity (ln)” value is reported as 9.43 ± 0.26.
For “AGTTTGTCAATCAACACACACCTATTTATTATAGAT [CACACA_site7777]”, the “gcPBM binding intensity (ln)” value was 9.1 ± 0.37.
For “AAAAATTATAACTAAAAAAATCACACAAAATATTTT [TGCATGCA_negctrl_site28]”, the “gcPBM binding intensity (ln)” value was 8.46 ± 0.39.
For “TTGCATTTATTATACACACACAAAAAAATATATATA [CACACA_site238]”, the “gcPBM binding intensity (ln)” value was 9.14 ± 0.27.
With “GTGTTAAATGTTTACACACAAACTTGCAATAATTAT [CACACA_site3825]” the “gcPBM binding intensity (ln)” value was 9.07 ± 0.34.
“TATGTATTTAAGTTACCTGAACGTTCAGGTAAAATT [CACACA_negctrl_site1393]” was tested, and the “gcPBM binding intensity (ln)” value was 8.82 ± 0.52.
For ACATATAAATATTGTGTGCACACACATAATATATAT, the “gcPBM binding intensity (ln)” value was 9.85 ± 0.36.
For “GTAATTTTAAAGAAAAGTACACATTTATTAATTATT [XGTACX_site4468]”, the “gcPBM binding intensity (ln)” value was 8.39 ± 0.38.
In the case of “GTGTAGTAAAATCGATGTACGTACAAATCAATTATT [XGTACX_site7662]”, the “gcPBM binding intensity (ln)” value is reported as 9.16 ± 0.41.
In the case of “AAAAAAATGAAGAAATGTACAAATTTCATTAATTTT [XGTACX_site354]”, the “gcPBM binding intensity (ln)” value is reported as 8.55 ± 0.59.
With “TATATATGTAAATGCACACATATGTGGATATACTTA [CACACA_site1699]” the “gcPBM binding intensity (ln)” value was 9.18 ± 0.4.
In the case of “TATAATAATTCTTTGAGTACTTAAACATGTGAAATT [XGTACX_site955]”, the “gcPBM binding intensity (ln)” value is reported as 8.45 ± 0.39.
In the case of “GCGAGATGCTAAAATGCATGTTGGGCATTAGTTAAA [TGCATGCA_site586]”, the “gcPBM binding intensity (ln)” value is reported as 8.78 ± 0.45.
With “ATATTAATATATGTGGCACACATGTGGAGTCCTATT [CACACA_site213]” the “gcPBM binding intensity (ln)” value was 9.27 ± 0.37.
With “TATCATTTCTAAAAAGGTACACATACATCATATATT [XGTACX_site3386]” the “gcPBM binding intensity (ln)” value was 8.78 ± 0.45.
For “TATATAATATTTTTCACACACCATTTCCTTAAACAC [CACACA_site4862]”, the “gcPBM binding intensity (ln)” value was 9.07 ± 0.4.
“CATATATGGTTATATACATGCACCATTATATTATTA [TGCATGCA_site520]” was tested, and the “gcPBM binding intensity (ln)” value was 8.71 ± 0.38.
For “GCAGGCTAAAAAATTACACACGAAAAAAATGAATTT [CACACA_site3417]”, the “gcPBM binding intensity (ln)” value was 8.79 ± 0.49.
For “TAAAAAAAAAGAAGGGGTACATGGATAATATATAAA [XGTACX_site8386]”, the “gcPBM binding intensity (ln)” value was 8.79 ± 0.47.
With “TGTATAACCTGTGTTACACACATTATGATTTATATA [CACACA_site525]” the “gcPBM binding intensity (ln)” value was 8.97 ± 0.26.
